# About 14,000 (4.5%) of roughly 310,000 compounds showed an effect of 50% or more. The effect is printed as a negative number. The list shows a part of the results.
# Target: human ether-à-go-go-related gene (hERG) potassium channel (human, UniProt Q12809)
# Assay: primary screen, population patch clamp on CHO cells stably expressing hERG
# 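Also: peak tail current of the secondary pulse compared with the same well before compound.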
# Sequence of human ether-à-go-go-related gene (hERG) potassium channel (Q12809 whole entry, looked up): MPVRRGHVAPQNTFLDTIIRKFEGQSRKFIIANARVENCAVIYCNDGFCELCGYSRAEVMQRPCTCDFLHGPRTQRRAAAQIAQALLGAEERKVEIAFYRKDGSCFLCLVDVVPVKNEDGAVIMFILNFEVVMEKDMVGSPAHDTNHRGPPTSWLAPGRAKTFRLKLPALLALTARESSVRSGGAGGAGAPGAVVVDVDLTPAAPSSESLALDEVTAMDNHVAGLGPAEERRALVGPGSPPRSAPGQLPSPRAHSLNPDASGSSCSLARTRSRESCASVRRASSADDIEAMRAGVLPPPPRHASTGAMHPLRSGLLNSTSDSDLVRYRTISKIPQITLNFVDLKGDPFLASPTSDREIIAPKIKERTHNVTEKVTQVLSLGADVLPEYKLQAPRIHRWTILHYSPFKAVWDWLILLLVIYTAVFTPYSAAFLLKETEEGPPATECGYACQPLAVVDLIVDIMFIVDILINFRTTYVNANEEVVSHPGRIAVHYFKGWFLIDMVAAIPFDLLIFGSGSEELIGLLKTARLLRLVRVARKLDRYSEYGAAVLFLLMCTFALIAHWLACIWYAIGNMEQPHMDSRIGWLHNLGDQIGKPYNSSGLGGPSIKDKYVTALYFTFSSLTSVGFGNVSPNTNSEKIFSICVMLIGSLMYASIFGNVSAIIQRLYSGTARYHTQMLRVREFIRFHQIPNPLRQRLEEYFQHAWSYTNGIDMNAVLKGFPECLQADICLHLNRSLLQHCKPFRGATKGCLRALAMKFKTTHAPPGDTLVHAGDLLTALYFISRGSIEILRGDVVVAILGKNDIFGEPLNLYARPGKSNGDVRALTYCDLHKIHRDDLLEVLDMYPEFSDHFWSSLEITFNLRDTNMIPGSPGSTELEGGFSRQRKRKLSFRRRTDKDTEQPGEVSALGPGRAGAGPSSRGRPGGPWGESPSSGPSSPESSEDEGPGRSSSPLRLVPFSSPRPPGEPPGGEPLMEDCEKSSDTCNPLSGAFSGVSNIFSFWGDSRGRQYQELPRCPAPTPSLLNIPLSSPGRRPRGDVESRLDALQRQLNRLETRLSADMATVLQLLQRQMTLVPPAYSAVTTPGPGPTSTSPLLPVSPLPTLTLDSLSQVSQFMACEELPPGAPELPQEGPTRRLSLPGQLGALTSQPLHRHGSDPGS
row,Structure (SMILES),"hERG current change (%, negative = inhibition) at 10uM"
1,CCOc1ccccc1CN1CCN(Cc2cc(=O)c3ccccc3[nH]2)CC1CCO (stereo not drawn),-66.6%
2,COc1ccc(CNc2nc3nc(C)c(Cl)c(=O)n3[nH]2)cc1,13.2%
3,COc1ccc([C@@H]2[C@@H]3C(=O)N(C(C)(C)C)C(=O)[C@@H]3[C@]3(Cc4ccccc4)C(=O)N(c4cccc(F)c4)C(=O)N23)cc1,1.73%
4,COc1cc(OC)c(C(=O)Nc2ccncc2)cc1OC,7.83%
5,O=c1c2ccccc2nc2n1CCCCN2,17.1%
6,COc1ccc(/C=C2/SC(=S)N(NS(=O)(=O)c3ccc(C)cc3)C2=O)cc1,27.9%
7,COC(=O)c1sc(S(=O)(=O)N2CCCCC2)c(C(=O)OC)c1C,-12%
8,CC(C)c1ccccc1OCC(O)CN1CCN(S(=O)(=O)c2ccc([N+](=O)[O-])cc2)CC1.O=C(O)C(=O)O (stereo not drawn),-11.1%
9,COCCn1c(SCC(=O)NCCc2ccccc2)nnc1-c1ccco1,-14.8%
10,COc1cc(C)c(CNc2cc(C)cc(C)c2)cc1C,-0.483%
11,CC(C)(C)c1cccc(P(=O)(c2ccccc2)c2ccccc2)c1O,10.2%
12,O=C1/C(=C/c2cccnc2)Oc2cc(OS(=O)(=O)c3ccccc3)ccc21,-4.54%
13,COc1ccc(-c2c(C)n([O-])c3c([n+]2=O)CCCC3)cc1OC,24.2%
14,COc1cccc(C(=O)CC(C(=O)O)c2ccc(F)cc2)c1 (stereo not drawn),24.4%
15,CN(C)c1nc(N(C)C)nc(N(C#N)CCCl)n1,8.89%
16,CCN(CC)CCn1c(SCC(=O)NCc2ccccc2)nc2c(sc3ccccc32)c1=O,-29.3%
17,CC(C)CC(=O)Nc1cccc(-c2cn3ccsc3n2)c1,0.856%
18,O=C(c1ccccc1F)n1c2c(c3ccccc31)CCCC2,11.7%
19,CCN(C(=O)CSc1nnc(-c2ccccc2)o1)c1c(N)n(Cc2ccccc2)c(=O)[nH]c1=O,-4.39%
20,NC(=O)CC(NC(=O)c1ccccc1)c1ccc(NCCN2CCCCC2)c([N+](=O)[O-])c1 (stereo not drawn),2.24%
21,CN(C)S(=O)(=O)c1ccc(-c2cn3ccccc3n2)cc1,10.6%
22,COc1ccc(NC(=O)CSCCc2ccccn2)cc1OC,30.8%

row,Structure (SMILES),"hERG current change (%, negative = inhibition) at 10uM"
1,CC(=O)OCC(=O)Nc1ccc(N=Nc2ccccc2)cc1,4.95%
2,Cc1n[nH]c(C)c1N=Nc1cc(Cl)ccc1Cl,11.9%
3,Cn1c(SCC(=O)NC2CCCCC2)nnc1-c1cc2cc(Cl)ccc2o1,2.01%
4,CC1C2(C)OCC(C#N)(C(=N)O2)C1(C#N)C#N (stereo not drawn),21%
5,COc1ccc(CNc2ccc(S(N)(=O)=O)cc2)cc1,-52.6%
6,Cc1ccc(S(=O)(=O)N2CCOCC2)cc1C(=O)N1CCOCC1,28.4%
7,COc1cc(/C=N/NC(=O)c2cccs2)ccc1O,-2.17%
8,CN1CCN(S(=O)(=O)c2ccc3c(c2)NC(=O)CS3)CC1,13.3%
9,COc1ccc(C2CC(c3ccccc3)=NN2S(=O)(=O)c2ccc(C)cc2)c(OC)c1 (stereo not drawn),5.4%
10,COc1ccccc1N1CCN(Cc2cc3c(cc2Br)OCCO3)CC1,0.273%
11,C=CCc1cccc(CNc2ccc(S(=O)(=O)Nc3nccnc3OC)cc2)c1O,-9.98%
12,O=C(CSc1ncn[nH]1)Nc1c(F)cc(F)cc1Br,7.92%
13,CC(=O)c1cccc(NC(=O)CSc2nnc(-c3cccnc3)o2)c1,-38.3%
14,O=C(NCC1(N2CCOCC2)CCCCC1)c1cccc(S(=O)(=O)N2CCc3ccccc3C2)c1,0.101%
15,CCN(CC)CCN1C(=O)C2C3c4ccccc4C(c4ccccc43)C2C1=O (stereo not drawn),-2.51%
16,COc1ccccc1NC(=O)N(Cc1ccccc1)C1=NCC(C)S1 (stereo not drawn),-3.8%
17,Cc1cc(CN2CCN(CCC#N)CC2)c(O)c(C2(C)CCCCC2)c1,4.69%
18,CCOc1ccccc1N1C(=O)CC(Nc2ccc(N3CCOCC3)cc2)C1=O (stereo not drawn),0.942%
19,CC(C)(C)OC(=O)NCCc1nnc(S(=O)(=O)Cc2ccc(Cl)cc2Cl)o1,-5.97%
20,CCOc1cc(C(=O)NCc2ccc(-c3nc4ccccc4o3)cc2)cc(OCC)c1OCC,-14.8%
21,Cc1cccc(C(=O)Nc2ccc(N3CCN(S(C)(=O)=O)CC3)cc2)c1,18.8%
22,COc1cccc(CN(C)C(=O)c2[nH]c(C)c(C(C)=O)c2C)c1OC,8.06%

row,Structure (SMILES),"hERG current change (%, negative = inhibition) at 10uM"
1,Cc1ccc2c(c1)C1CN(C)CCC1N2C(=O)c1cccc(S(=O)(=O)N(C)C)c1.c1ccccc1 (stereo not drawn),-25%
2,CC1CN(S(=O)(=O)c2ccc(C(=O)Nc3sccc3C(N)=O)cc2)CC(C)O1 (stereo not drawn),-10.8%
3,CCOC(=O)c1cc(NC(=O)NCc2ccco2)c(C)nc1C,8.26%
4,COC(=O)c1ccc(Nc2cc(C)nc(-c3ccccc3O)n2)cc1,19.4%
5,NC(=O)NC(=O)CSc1cccc(C(F)(F)F)c1,9%
6,Cn1nnnc1SCC(=O)N1CCN(S(=O)(=O)c2ccccc2)CC1,-3.87%
7,COc1ccc(NC(=O)/C=C/c2cccc(C(F)(F)F)c2)cn1,3.06%
8,Cc1ccc(C)c(C(C)NC(=O)C2CC=CCC2C(=O)O)c1 (stereo not drawn),2.2%
9,CCCN(C(=O)COC(=O)C12CCC(=O)N1c1ccccc1S2)c1c(N)n(Cc2ccccc2)c(=O)[nH]c1=O (stereo not drawn),13.3%
10,CCn1c2ccccc2c2cc(NC(=O)c3ccco3)ccc21,-5.72%
11,CCOC(=O)CNc1nc(C#N)nc(N2CCOCC2)n1,1.53%
12,O=C(NCc1ccccc1)C1=C[C@@H](c2ccccc2)C[C@@H](OCCCCO)O1,-36.6%
13,CCOC(=O)Oc1c(OC)cc(C(=O)O[C@@H]2C[C@@H]3CN4CCc5c([nH]c6cc(OC)ccc56)[C@H]4C[C@@H]3[C@H](C(=O)OC)[C@H]2OC)cc1OC,7.16%
14,CC(=O)c1cc2c(cc1N/C(=N/S(=O)(=O)c1ccc(Br)cc1)c1ccccc1)OCO2,17.9%
15,CC1CCN(S(=O)(=O)c2cccc(C(=O)Nc3nccs3)c2)CC1,0.638%
16,COc1ccc(C2Nc3cccc4cccc(c34)N2)cc1Br,9.97%
17,COc1ccc(Cl)cc1NC(=O)CN(C)C(=O)c1n[nH]c2ccccc12,-8.65%
18,C=C(C)c1sc(-c2ccccc2)nc1C,-7.49%
19,Cc1cccc(NC(=O)c2cc(NC(=O)C3CCCCC3C(=O)O)ccc2N2CCOCC2)c1 (stereo not drawn),2.19%
20,O=[N+]([O-])c1cccc(C(=NCc2ccccc2)NO)c1,15.9%
21,Cc1ccccc1N1C(=O)/C(=C/c2ccco2)C(=O)NC1=S,16.5%
22,COc1ccc(CCNc2nc3ccccc3n3nnnc23)cc1OC,1.05%

row,Structure (SMILES),"hERG current change (%, negative = inhibition) at 10uM"
1,COc1cc(/C=N/NC(=O)c2ccncc2)ccc1OC(C)=O,4.72%
2,COc1ccc(S(=O)(=O)n2ccc(-c3ccc4c(c3)CCC(C)(C)O4)n2)cc1,-1.94%
3,O=C(O)c1ccccc1C(=O)c1ccc(Br)s1,24.7%
4,O=C(NC(=S)NC1CCCCCCCCCCC1)c1cccnc1,-4.46%
5,CC(Oc1ccccc1)C(=O)NC1CC(C)(C)NC(C)(C)C1 (stereo not drawn),6%
6,COc1cccc(CNC(=O)CCCC(=O)Nc2cccc([N+](=O)[O-])c2)c1,-26.1%
7,O=C1C=CC(=O)N1c1cccc(-c2ccccc2)c1,3.16%
8,Cc1oncc1C(=O)N1CCCC(CO)(Cc2ccc(F)cc2F)C1 (stereo not drawn),-3.66%
9,CN(C)c1ccc(CNCCC2CCOC(C)(C)C2)cc1.Cl (stereo not drawn),9.65%
10,Cc1ccc(C(=O)NC2CCCCNC2=O)cc1 (stereo not drawn),7.39%
11,COc1cccc(CN2CCNC(=O)C2CC(=O)N(C)CCC2CCOCC2)c1OC (stereo not drawn),6.07%
12,CCN(c1ccccc1)c1ncnc2c1cnn2-c1ccccc1,-11.2%
13,CC1CCCCN1CCCNC(=O)c1c(O)nc2ccccn2c1=O (stereo not drawn),15.9%
14,CC(=O)N1CCc2cc(S(=O)(=O)NC(CC(C)C)C(=O)Nc3ccc4c(c3)OCCO4)ccc21 (stereo not drawn),3.09%
15,CCOc1cc(C(=S)N2CCOCC2)ccc1OC(=O)c1cc(OC)c(OC)c(OC)c1,13.6%
16,CCCCSCCCNC(=O)Nc1ccc(CC)cc1,2.41%
17,Cc1ccccc1N1CCN(S(=O)(=O)Cc2ccccc2)CC1,8.57%
18,COc1ccc(NC(=O)C2CCCN(S(=O)(=O)c3ccc4c(c3)CC(C)N4C(C)=O)C2)cc1 (stereo not drawn),24.3%
19,S=C(Cc1ccccc1)NCCc1ccccc1,-25.4%
20,COc1nnc(-c2ccc(N3CCCCC3)c(NC(=O)C3CCCCC3)c2)c2ccccc12,-3.9%
21,O=C(O)c1ccc(NS(=O)(=O)/C=C/c2ccccc2)cc1O,5.19%

# From PMC4336329 (PLoS ONE, 2015)
